Data taken from the supplement of paper PMC4166925.
± gives the standard deviation of the averaged measurements. The full ranking holds about 33,000 sequences; the median of “E-score (dimensionless, -0.5 to 0.5)” is about -0.049, and the highest 2% start at about 0.37. Some of the results follow.

System: T1, PmTbr T-box DNA-binding domain (GST fusion)
T1 sequence: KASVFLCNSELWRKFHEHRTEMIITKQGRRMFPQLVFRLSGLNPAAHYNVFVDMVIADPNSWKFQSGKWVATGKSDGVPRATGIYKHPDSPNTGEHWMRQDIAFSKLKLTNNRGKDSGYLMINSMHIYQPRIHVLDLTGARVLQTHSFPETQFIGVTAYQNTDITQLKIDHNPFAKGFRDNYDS
Assay: PBM E-score of 8-mer (E-score (dimensionless, -0.5 to 0.5)); Tbr is Tbrain of the sea star Patiria miniata (Pm) or the sea urchin Strongylocentrotus purpuratus (Sp); higher = stronger binding preference; most listed sequences are background and not binding sites
Details: the construct has about 5 more residues each side
In short: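 GST-fused Tbr T-box DNA-binding domains (the whole T-box plus about five flanking residues) were expressed in BL21 E. coli at 20 °C and purified by glutathione affinity chromatography. Universal Agilent oligonucleotide arrays were made double-stranded by primer extension, incubated with 200 nM protein in PBS (pH 7.5), then scanned and quantified. Every ungapped 8-mer was scored from probe intensities. The Universal PBM Analysis Suite gave each word an enrichment E-score, averaged over duplicate arrays.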

Sequence	PBM E-score of 8-mer
AAGCACAT	0.00968 ± 0.019
AACTCGGA	-0.14 ± 0.011
AGACGTCA	-0.0228 ± 0.0035
CATGGTGG	0.0716 ± 0.00076
GCAGACCC	-0.0793 ± 0.046
CGTATTCC	-0.23 ± 0.036
CGGCAGCC	-0.13 ± 0.034
AATCTTAC	-0.185 ± 0.01
AGTCCATA	-0.27 ± 0.031
GATCCGAC	-0.0863 ± 0.057
ACTCGGCT	-0.061 ± 0.032
AAGTAGGG	-0.216 ± 0.013
CAACCTAC	0.16 ± 0.015
AGGGCCGG	-0.188 ± 0.027
AACTGGGC	-0.0959 ± 0.1
AACTTTTC	0.117 ± 0.047
GGGACGCA	-0.112 ± 0.0018
AACATCCC	-0.117 ± 0.047
CAGTATTA	-0.0935 ± 0.092
ACGAGAAT	0.0844 ± 0.012
CGCACTAG	0.167 ± 0.021
CTATCCCC	-0.15 ± 0.059

Sequence	PBM E-score of 8-mer
AATTGACC	-0.208 ± 0.049
CAGGACGA	-0.13 ± 0.02
AGGTTCCC	-0.269 ± 0.027
CGCTCTAG	0.124 ± 0.066
AAACTGCA	-0.152 ± 0.048
ACCGGAAG	0.0984 ± 0.051
AGAGCTAT	-0.0757 ± 0.054
GTCTACAC	0.286 ± 0.043
CCTACTGC	-0.0677 ± 0.056
CATCCCTA	-0.227 ± 0.0076
AACTAACA	0.265 ± 0.033
GTCAGTAA	-0.0125 ± 0.075
AATATCCG	-0.2324 ± 0.00027
AGTAACCA	-0.00474 ± 0.00078
AACCACTC	-0.0948 ± 0.038
AAGCATCT	-0.112 ± 0.053
CGAGCGAC	0.111 ± 0.021
CCCTATCA	-0.00244 ± 0.085
ACAATTGT	0.186 ± 0.032
ACCTATGA	-0.00105 ± 0.083
CCCCTCAA	-0.0994 ± 0.049
GGGCTTAC	-0.109 ± 0.037

Sequence	PBM E-score of 8-mer
AAGGTGTG	0.4811 ± 0.0016
CTACGTCC	-0.131 ± 0.094
GTACCCCA	-0.22 ± 0.027
ACAGGGCT	-0.243 ± 0.0088
ACATTACC	-0.144 ± 0.023
ATTTAAGA	-0.165 ± 0.058
ACGTAGCC	-0.223 ± 0.051
ATTAGCCA	-0.102 ± 0.033
GTCTATCA	-0.0452 ± 0.061
CCGGGGAC	-0.19 ± 0.084
ACATGATA	-0.00038 ± 0.028
ACAGGAAA	0.0152 ± 0.054
ACCTCGAA	0.197 ± 0.023
GCTGTTCA	0.0254 ± 0.024
ACAGAATA	-0.305 ± 0.0032
GAATACAC	0.0212 ± 0.11
TAGGACAA	-0.135 ± 0.06
GCAAGTGA	0.3016 ± 0.003
AGGTTACA	-0.0341 ± 0.0097
CCCGTGGC	-0.00684 ± 0.023
